Drawing on PMC4242493, this text covers binding signal (normalized occupancy) for 172 sequences.

This is one part of the list. The list includes weakly bound sequences.

The target of this assay is MaxL homodimer (UniProt P61244). Kind of assay: universal protein-binding microarray (PBM). The settings on record: PBS-based mixture, 10 nM His-tagged protein dimer, 2% milk, 200 ng/uL BSA, 50 ng/uL salmon testes DNA, 0.02% TX-100; detection with Alexa 488 anti-His …; high values mean tight binding; most listed sequences are background and not binding sites; double strand, one strand shown.
Sequence of UniProt P61244 (P61244 whole entry): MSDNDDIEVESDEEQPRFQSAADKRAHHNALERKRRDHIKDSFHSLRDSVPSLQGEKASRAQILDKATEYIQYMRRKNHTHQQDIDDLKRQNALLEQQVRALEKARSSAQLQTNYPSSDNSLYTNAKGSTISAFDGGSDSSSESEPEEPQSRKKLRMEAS
On to CTACGCGA, for which the binding signal (normalized occupancy) is 0.0688.
On to CATGGTCC, for which the binding signal (normalized occupancy) came out at 0.0891.
Next, TAAGCCCA: 0.0743; GTTCGCGA: 0.0668.
Regarding GCCACCAA, the binding signal (normalized occupancy) came out at 0.072.
With ACCTCTGC, the binding signal (normalized occupancy) was found to be 0.0759.
Regarding AGCAAACA, the binding signal (normalized occupancy) is 0.0822.
For AAAAGCAA the value was 0.0737; for ACCGTTCG, 0.0729.
Next, GAACCGAA: 0.0654.
For AATGGCAT, the binding signal (normalized occupancy) worked out at 0.0907.
For GAAACCAC the value was 0.0834.
For CGTTACCC the value was 0.0797; for CTAAGGGC, 0.0716.
For the sequence GAGTGATC, the binding signal (normalized occupancy) was 0.0724.
AGCAGATA: the binding signal (normalized occupancy) was 0.0707.
As for CTGCTAAA, the binding signal (normalized occupancy) was 0.0677.
ACTAGTTA: the binding signal (normalized occupancy) amounted to 0.0749.
Turning to AAGTCCCA, the binding signal (normalized occupancy) amounted to 0.0706.
Next, AGTACGTA: 0.0786.
Regarding GGCTACTA, the binding signal (normalized occupancy) was found to be 0.0714.
For AAAGCCCC the value was 0.0704; for AGAAACAT, 0.0809; for GAATGGCA, 0.0776.
With ACAGTTAG, the binding signal (normalized occupancy) stood at 0.0725.
Take GTAAGGAA: the binding signal (normalized occupancy) amounted to 0.0733.
On to CTGGGGGC, for which the binding signal (normalized occupancy) worked out at 0.0675.
On to ATCGAAGG, for which the binding signal (normalized occupancy) came to 0.0715.
Consider AAGGTGCA, for which the binding signal (normalized occupancy) amounted to 0.0746.
Consider TCTGTGAA, for which the binding signal (normalized occupancy) came to 0.0733.
For ACATTTGA the value was 0.0788; for AACTACTA, 0.0738; for GTAGATCA, 0.074.
For AAGTGAAG the value was 0.076.
Turning to TCTAATCA, the binding signal (normalized occupancy) came to 0.0772.
With CTCCGACC, the binding signal (normalized occupancy) turned out to be 0.0732.
For CAGTACCG, the binding signal (normalized occupancy) came to 0.0729.
ACTATCAC: the binding signal (normalized occupancy) was 0.0761.
With CTCCCTGA, the binding signal (normalized occupancy) was 0.0717.
For AGGTGCTA, the binding signal (normalized occupancy) was 0.0779.
For the sequence ATGGCATA, the binding signal (normalized occupancy) stood at 0.085.
In the case of CACGCGGC, the binding signal (normalized occupancy) turned out to be 0.151.
Next, CTCGGAGA: 0.0662; CTCTATCA: 0.0747.
Regarding TCACCCCA, the binding signal (normalized occupancy) worked out at 0.0836.
Next, AAATACTA: 0.0746.
For the sequence AAGAGTGC, the binding signal (normalized occupancy) is 0.0752.
For GGGGTTGA, the binding signal (normalized occupancy) is 0.0883.
For the sequence TAAACGAA, the binding signal (normalized occupancy) was 0.0728.
Consider ACAGCAGA, for which the binding signal (normalized occupancy) is 0.0725.
On to GGCTGGAA, for which the binding signal (normalized occupancy) was 0.0729.
On to ATCTGCAA, for which the binding signal (normalized occupancy) was 0.0757.
For the sequence AAAAACGG, the binding signal (normalized occupancy) stood at 0.0691.
For TGACCACA, the binding signal (normalized occupancy) worked out at 0.0815.
Take GTATAAAA: the binding signal (normalized occupancy) was 0.0856.
Take ATGGGAAC: the binding signal (normalized occupancy) was 0.0777.
Take CTAAGACA: the binding signal (normalized occupancy) was 0.0843.
As to ATTTAACA, the binding signal (normalized occupancy) turned out to be 0.0772.
Next, ACGGCGCA: 0.0778.
With ATCGACTA, the binding signal (normalized occupancy) worked out at 0.0763.
For ATCGGCGC the value was 0.0749; for CGACCTTA, 0.0767; for CTCTACTA, 0.0757.
For GGGACCTA, the binding signal (normalized occupancy) is 0.0727.
Consider ATAAGTCA, for which the binding signal (normalized occupancy) was found to be 0.0772.
For AACGGTTA the value was 0.0738; for GAGAGTTA, 0.0759; for TAGTCAGA, 0.0682.
As to AGATGGCG, the binding signal (normalized occupancy) was found to be 0.0737.
With CTCTAGAA, the binding signal (normalized occupancy) amounted to 0.0758.
Take AGCGCATG: the binding signal (normalized occupancy) is 0.109.
Consider CGGACCGC, for which the binding signal (normalized occupancy) is 0.0682.
As for AGCCAGCG, the binding signal (normalized occupancy) came to 0.0718.
With CCCCCTTA, the binding signal (normalized occupancy) came to 0.0818.
With AACAGAGC, the binding signal (normalized occupancy) was determined as 0.0683.
Next, CCAGAATC: 0.0733; CAGGGTCC: 0.0727.
For CCTTTCCG the value was 0.0638; for AAAGTCAC, 0.0795; for CTAGGCAC, 0.0749.
As for ATCTGCGG, the binding signal (normalized occupancy) was 0.0685.
Next, GTCGGGCA: 0.0729; CATGCTGG: 0.125.
ATTAATTA: the binding signal (normalized occupancy) came out at 0.0701.
Next, CCATTTCC: 0.0778; CGACGTTA: 0.0745; AAAGGGAG: 0.0725.
Take CACCTAGC: the binding signal (normalized occupancy) was determined as 0.0763.
In the case of AAAATTAC, the binding signal (normalized occupancy) is 0.0693.
ATCCCTCG: the binding signal (normalized occupancy) is 0.0753.
For CATTAGCG, the binding signal (normalized occupancy) was 0.0779.
Consider AAGTTTCC, for which the binding signal (normalized occupancy) turned out to be 0.0709.
Next, GAATTGGA: 0.0743.
Consider GCGCATCC, for which the binding signal (normalized occupancy) is 0.0737.
Next, GCGTATCA: 0.0767; GACAAGGC: 0.0758; ATATCAGG: 0.0861.
For the sequence CCTTCCTC, the binding signal (normalized occupancy) is 0.0734.
For CCGGCCGC, the binding signal (normalized occupancy) turned out to be 0.0663.
As for AAGGATCA, the binding signal (normalized occupancy) was found to be 0.0765.
As to GGTGATCA, the binding signal (normalized occupancy) came to 0.0835.
Turning to AGGTACTC, the binding signal (normalized occupancy) was determined as 0.0741.
Turning to AGTGTAGA, the binding signal (normalized occupancy) was determined as 0.0784.
ACGTCGAT: the binding signal (normalized occupancy) worked out at 0.0796.
For the sequence AATGACCT, the binding signal (normalized occupancy) worked out at 0.0776.
Take ACGCTAAC: the binding signal (normalized occupancy) was determined as 0.0831.
GAGTTGGC: the binding signal (normalized occupancy) amounted to 0.0685.
Take CCGAGTTA: the binding signal (normalized occupancy) was 0.0739.
Next, CAAAAGTA: 0.0739; AATGCTTC: 0.0816; CCCATCAC: 0.0843.
For the sequence ACTCACAA, the binding signal (normalized occupancy) worked out at 0.0731.
Take AGTTTGAG: the binding signal (normalized occupancy) was 0.0681.
Take ATATCACA: the binding signal (normalized occupancy) was 0.0891.
Consider ACAGGTCT, for which the binding signal (normalized occupancy) was 0.0704.
As for CGCGGTGC, the binding signal (normalized occupancy) was 0.0729.
Regarding GAGAAATA, the binding signal (normalized occupancy) was found to be 0.0824.
As to AAAAACGA, the binding signal (normalized occupancy) is 0.0768.
Turning to AAATCGGA, the binding signal (normalized occupancy) is 0.0675.
Next, GATAGATA: 0.0808; CGTCGATA: 0.0757; ATGTTCCA: 0.0808.
On to CTGGTTTA, for which the binding signal (normalized occupancy) worked out at 0.0796.
For the sequence GGGCTCCA, the binding signal (normalized occupancy) turned out to be 0.0685.
As for GGTACGTA, the binding signal (normalized occupancy) came to 0.0841.
As for CTGACCAA, the binding signal (normalized occupancy) is 0.0694.
For the sequence CTGCGCTA, the binding signal (normalized occupancy) is 0.0673.
Regarding CTATGAAG, the binding signal (normalized occupancy) was found to be 0.0742.
Consider AACAATCC, for which the binding signal (normalized occupancy) was found to be 0.0768.
Take AGTTCACA: the binding signal (normalized occupancy) came out at 0.08.
As for CGTAGAGC, the binding signal (normalized occupancy) is 0.0769.
For AGTTTGCG, the binding signal (normalized occupancy) came out at 0.0699.
In the case of CGGGGCGC, the binding signal (normalized occupancy) was 0.0675.
Regarding CATATGCG, the binding signal (normalized occupancy) was found to be 0.105.
Consider AAGGGCTC, for which the binding signal (normalized occupancy) was found to be 0.0681.
For CAGAAGAC, the binding signal (normalized occupancy) came to 0.0718.
GATACAGC: the binding signal (normalized occupancy) came to 0.0857.
Next, ACCAACAA: 0.077; TCGAGGCA: 0.0756.
As to AGCTAAAG, the binding signal (normalized occupancy) is 0.0685.
Next, TAGCTCAA: 0.0683; ACAGTTGC: 0.0708.
Next, CGCCATCA: 0.0782.
Regarding GCGCACCA, the binding signal (normalized occupancy) came to 0.0775.
In the case of CAAGCGGC, the binding signal (normalized occupancy) came to 0.0656.
For AGTGGCTA the value was 0.0699.
Take CTTTCTAA: the binding signal (normalized occupancy) was 0.0688.
In the case of AATCTTCC, the binding signal (normalized occupancy) was 0.0748.
Next, AACCTTCC: 0.079; TCGGAGAA: 0.0725; GCCTGTGA: 0.0761.
AATCACAT: the binding signal (normalized occupancy) amounted to 0.0908.
As for TCACCTCA, the binding signal (normalized occupancy) amounted to 0.0824.
Next, GTGGCAAA: 0.0796.
For CAAAGCCG, the binding signal (normalized occupancy) turned out to be 0.0636.
In the case of GGTAGGAC, the binding signal (normalized occupancy) stood at 0.0714.
As for CGCAACCC, the binding signal (normalized occupancy) is 0.0716.
For the sequence ATATCAAA, the binding signal (normalized occupancy) was 0.0825.
Next, CCAGGGGA: 0.0742; AATAATCA: 0.0776; TCTCACCA: 0.0809.
On to CTTACGAA, for which the binding signal (normalized occupancy) was determined as 0.0737.
Next, ATTCTTAC: 0.0779; GGGGACGA: 0.0762.
Regarding CACAGATG, the binding signal (normalized occupancy) was 0.082.
Regarding CATTCGTA, the binding signal (normalized occupancy) came to 0.0782.
With GTGCGGCA, the binding signal (normalized occupancy) amounted to 0.0826.
Consider ACACGGAG, for which the binding signal (normalized occupancy) was determined as 0.0756.
With ATGAACGC, the binding signal (normalized occupancy) amounted to 0.0778.
For AAGCAAGA, the binding signal (normalized occupancy) came to 0.0758.
For AATGAGTC the value was 0.0814; for AGCTCCTG, 0.0669.
